Laboratory results: PubChem BioAssay AID2451 (National Center for Advancing Translational Sciences (NCATS), 2010)
Values joined by “and” are separate entries in the source; they are usually repeats but may differ in a detail not shown here. Equal entries are not always repeated. The campaign covered roughly 290,000 compounds. About 2,100 (0.72%) were called active. This list was built around the results that the source calls inconclusive (neither active nor inactive); the mix of calls is not that of the screen. Calls follow the shape of the dose curve; as a rule, active = well fitted inhibition curve with a large enough effect; inconclusive = small, poorly fitted or top-dose-only effect, or effect the other way; inactive = flat fitted curve, though single readings scatter. Potencies beside an inconclusive call are fits to weak or partial responses and may not hold up.

These compounds were tested against Fructose-bisphosphate aldolase (Giardia intestinalis (strain ATCC 50803 / WB clone C6)) (UniProt A8B2U2) (assay: qHTS Assay for Inhibitors of Fructose-1,6-bisphosphate Aldolase from Giardia Lamblia). Settings: purified Giardia FBPA; series mostly up to 59.6 µM.
In short: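 40 nM FBPA preincubated 10 min at RT with compound (up to 57.5 uM final), then substrate plus GAPDH/TPI/NAD/arsenate coupling and diaphorase/resazurin added. Fluorescence read after 20 min at RT, 525/598 nm.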
Also: nearly all actives have a fitted effect of over 55% in size.
Potency is read from the fitted curve at half-maximal effect; tags tell the direction and shape of the fitted curve.

UniProt A8B2U2, sequence (A8B2U2 whole entry, looked up): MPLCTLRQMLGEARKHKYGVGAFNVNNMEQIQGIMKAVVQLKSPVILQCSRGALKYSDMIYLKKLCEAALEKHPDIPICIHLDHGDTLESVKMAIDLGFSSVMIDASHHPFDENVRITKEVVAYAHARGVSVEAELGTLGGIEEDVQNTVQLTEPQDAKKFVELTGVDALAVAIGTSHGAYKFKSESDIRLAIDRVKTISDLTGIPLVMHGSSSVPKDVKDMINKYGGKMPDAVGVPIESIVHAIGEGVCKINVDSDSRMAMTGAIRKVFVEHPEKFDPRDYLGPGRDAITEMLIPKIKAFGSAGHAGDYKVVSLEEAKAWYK

Row | SMILES | Potency
1 | Cc1nc(N2CCCCC2)c2ccsc2n1 | inconclusive: 15.8 µM [inhibitor, single point]
2 | COC/C=C/C1=CC2=CC(=O)C(C)(OC(=O)c3cnc4ccccc4n3)C(=O)C2=CN1C1CCCCC1 (centres undefined) | inconclusive: 630 nM [inhibitor, full curve] and inconclusive: 11.2 µM [inhibitor, partial curve]
3 | COc1ccc(CN(C(=O)c2ccccc2OC)C2CCS(=O)(=O)C2)cc1 (centres undefined) | inactive
4 | C=CCNC(=O)c1ccccc1NS(=O)(=O)c1ccccc1 | inactive
5 | COc1ccc(OC)c(CN2CCN(C(=O)c3ccco3)CC2)c1 | inconclusive: 20 µM [inhibitor, partial curve]
6 | COc1ccc(NC2CCCN(C(=O)CCc3ccncc3)C2)cc1OC (centres undefined) | inconclusive: 12.6 µM [inhibitor, partial curve]
7 | O=C1CC(N2CCN(c3ccc(Cl)cc3)CC2)C(=O)N1c1ccccc1 (centres undefined) | inactive
8 | CCCN1C(=O)/C(=C\C=C2/C=CN(CC)c3ccccc32)SC1=S | inconclusive: 5 µM [inhibitor, full curve]
9 | COc1ccc2c(c1OC)C(=O)N(c1ccccn1)C2 | inactive
10 | COc1nc(N/N=C/c2ccc(-c3ccccc3[N+](=O)[O-])o2)nc(N2CCOCC2)n1 | active: 4.46 µM
11 | O=C1NNC(c2ccccc2)=N/C1=C\c1ccco1 | inactive
12 | CC(C)C(=O)Nc1ccc(NC(=O)c2cccs2)cn1 | inconclusive: 12.6 µM [inhibitor, partial curve]
13 | O=C(CN1CCN(CCN2C(=O)c3cccc4cccc(c34)C2=O)CC1)c1ccc(F)cc1 | inactive
14 | COc1ccc(C/C(C)=N/NC(=S)Nc2ccccc2)cc1 | inconclusive: 11.2 µM [inhibitor, partial curve]
15 | O=C(CN1CCN(c2ccccn2)CC1)Nc1ccc(F)cc1 | inconclusive: 15.8 µM [inhibitor, partial curve]
16 | COC(=O)CCCC1=CC2=C(c3ccccc3)C(=O)C(C)(OC(=O)C3CCCC3)C(=O)C2=CN1CC1CC1 (centres undefined) | inconclusive: 2.81 µM [inhibitor, full curve]
17 | O=C(c1cccnc1)N1CCN(CCCc2ccccc2)CC1 | inconclusive: 19.9 µM [inhibitor, single point]
18 | Cc1ccc(NC(=S)Nc2cccc3cnccc23)cc1C | inconclusive: 6.29 µM [inhibitor, partial curve]
19 | O=S(=O)(O)c1ccc2c(c1)-c1nc-2nc2[nH]c(nc3nc(nc4[nH]c(n1)c1ccc(S(=O)(=O)O)cc41)-c1ccc(S(=O)(=O)O)cc1-3)c1ccc(S(=O)(=O)O)cc21 | inconclusive: 35.4 µM [inhibitor, single point]
20 | Cc1[nH]c2ccccc2c1C(C[N+](=O)[O-])c1ccco1 (centres undefined) | inconclusive: 17.7 µM [inhibitor, single point]
21 | CC(C)C[C@H](NC(=O)c1nc[nH]c1C(=O)NCCCCCNC(=O)OC(C)(C)C)C(=O)OC(C)(C)C | active: 17.7 µM
22 | O=C(Nc1nnc(S(=O)(=O)N2CCOCC2)s1)c1ccccc1Cl | inconclusive: 28.2 µM [inhibitor, single point]

Row | SMILES | Potency
23 | CC1CCN(S(=O)(=O)c2ccc3c(c2)C(=NO)c2cc(S(=O)(=O)N4CCC(C)CC4)ccc2-3)CC1 | inactive
24 | Cc1c(C)n(CC(O)CNCCO)c2ccccc12 (centres undefined) | inconclusive: 14.1 µM [inhibitor, partial curve]
25 | CCCc1c(OCCCOc2ccc(OCC(=O)O)cc2)ccc(CC=O)c1O | inconclusive: 25.1 µM [activator, partial curve]
26 | Cc1cccc(NC(=O)CO/N=C/c2ccc3c(c2)OCO3)c1 | inactive
27 | Cc1[nH]n(-c2ccccc2)c(=S)c1C=Nc1cccc([N+](=O)[O-])c1 | inconclusive: 19.9 µM [inhibitor, partial curve]
28 | COc1ccc(CN2CCN(C(=O)c3cccs3)CC2)cc1Br | inconclusive: 25.1 µM [inhibitor, partial curve]
29 | CNCCCOc1ccc(Cl)cc1C(C)(C)C | inconclusive: 17.7 µM [inhibitor, partial curve]
30 | COc1ccc(/C=C/C(=O)NC(=S)NNC(=O)c2cccnc2)cc1OC | inconclusive: 15.8 µM [activator, single point]
31 | Cc1ccc2c(c1)nnn2C1CCN(CC(=O)Nc2ccccc2N2CCOCC2)CC1 | inactive
32 | Cc1[nH][nH]c(=O)c1C(c1ccc(-c2ccc(Cl)c(Cl)c2)o1)c1c(C)[nH][nH]c1=O | inconclusive: 9.98 µM [inhibitor, partial curve]
33 | N#CCCN(CCC#N)S(=O)(=O)c1ccc(C(=O)Nc2nnc(C3=COCCO3)o2)cc1 | active: 15.8 µM
34 | O=C(NC(=S)NN1CCCCC1c1cccnc1)c1ccc(Br)cc1 (centres undefined) | inconclusive: 15.8 µM [inhibitor, partial curve]
35 | COc1cc(C(=S)N2CCN(c3ccccc3Cl)CC2)cc(O)c1O | inconclusive: 25.1 µM [inhibitor, single point]
36 | O=c1[nH]c(NC2CCCCC2)c([N+](=O)[O-])c(=O)[nH]1 | inactive
37 | CCn1ccnc1CN(C)C(=O)c1cc(COc2ccc(OC)c3ccccc23)on1 | inconclusive: 44.7 µM [inhibitor, partial curve, poor fit]
38 | c1ccc(-c2nc(-c3ccncc3)n[nH]2)nc1 | active: 3.54 µM
39 | CCN(c1ccccc1)c1cc2ccccc2c(=O)[nH]1 | inconclusive: 14.1 µM [inhibitor, partial curve]
40 | Cc1cccc(N(Cc2ccccc2)C(=O)c2ccccc2F)c1 | inactive
41 | C[C@@H](C(=O)N1CCNCC1)n1cc(CCCN=C(N)N)nn1 | inactive
42 | CCOC(=O)C1CCN(CC(=O)Nc2ccc(OC)c(Cl)c2)CC1 | inconclusive: 15.8 µM [inhibitor, partial curve]
43 | CCCCC(=O)NC(c1ccc(C(C)C)cc1)c1ccc2cccnc2c1O (centres undefined) | inconclusive: 14.1 µM [activator, partial curve]
44 | Fc1ccc(N2CCN(Cc3ccccn3)CC2)cc1 | inconclusive: 17.7 µM [inhibitor, partial curve]
